# Experimental data published in paper PMC10668032.
# Some of the results follow. At the low end of the ranking, values are background and their order means little.
# Molecular target: SIX1 homeodomain (reference allele) (UniProt Q15475)
# Assay: universal protein binding microarray
# Conditions: Universal all-10-mer PBM (8x60K, AMADID 030236), 300 nM GST-tagged protein, Alexa Fluor 488 anti-GST; buffer, salt, pH and temperature not stated; high values mean tight binding; most listed sequences are background and not binding sites; double strand, one strand shown
row,Sequence,binding signal
1,ATCAATTA,0.229 E-score
2,ACAGCTAA,-0.131 E-score
3,ACGCAGAG,-0.123 E-score
4,CCTGGCCA,-0.181 E-score
5,ACAAGAGT,-0.187 E-score
6,GGTCGCAC,-0.21 E-score
7,AGACACAG,0.0101 E-score
8,CCTACGCC,0.102 E-score
9,CAGGAAGG,-0.234 E-score
10,GACGCAAA,-0.165 E-score
11,AAAGCTCG,-0.168 E-score
12,GCAGCTTA,-0.0421 E-score
13,AGTAAAAG,0.0311 E-score
14,CAGCCATA,0.069 E-score
15,AACCCCAG,0.0943 E-score
16,AAGCGATT,0.0751 E-score
17,TGTCCCAA,-0.112 E-score
18,ACATAACC,-0.0915 E-score
19,AACGAGAT,0.1 E-score
20,CAGACAAG,-0.12 E-score
21,CAGGGAGG,-0.117 E-score
22,ATGAAGGG,0.065 E-score
23,GAGTACGC,-0.0824 E-score
24,TAGATTCA,-0.186 E-score
25,CAAGGTAC,-0.208 E-score

row,Sequence,binding signal
1,ATCGTTCG,0.27 E-score
2,GCAATAAC,-0.0289 E-score
3,GCAGCGAC,-0.0365 E-score
4,AAACTCTC,-0.15 E-score
5,AACCGAAA,-0.149 E-score
6,CTTCGGCA,-0.12 E-score
7,CGAGTTAC,-0.0443 E-score
8,ACGGGGGC,-0.0511 E-score
9,GTGAATGA,-0.13 E-score
10,ATCATTAC,0.295 E-score
11,CGTCTCAG,0.161 E-score
12,CCTGACCG,-0.0564 E-score
13,AACTGACG,-0.352 E-score
14,GACCATAA,-0.063 E-score
15,CGTCTTTC,-0.252 E-score
16,CCCGACTA,0.0848 E-score
17,CGCCTTTC,-0.253 E-score
18,ATGGCACG,-0.0871 E-score
19,ACCCGAAG,0.124 E-score
20,CAGATACC,0.433 E-score
21,ACGAAAGG,-0.087 E-score
22,ACATGTCC,-0.0849 E-score
23,CCATTCGA,-0.129 E-score
24,CGGTGCAG,-0.148 E-score
25,CCTATGAC,-0.065 E-score

row,Sequence,binding signal
1,CTCCGGAG,-0.064 E-score
2,ACAACCTC,-0.242 E-score
3,ATATAGCA,0.248 E-score
4,ACGGAGGC,-0.127 E-score
5,AAACCTTA,0.0446 E-score
6,CAACTGAG,0.0954 E-score
7,CCTCAATC,-0.0694 E-score
8,ACCCGACA,0.239 E-score
9,AGCTAAAT,-0.123 E-score
10,ATCGCCAA,0.119 E-score
11,ATCAAAGG,0.0975 E-score
12,GTTATTTA,-0.0939 E-score
13,CAGTTCGC,-0.268 E-score
14,CATATCGA,0.417 E-score
15,GACGTCGC,-0.189 E-score
16,AACGCCTG,-0.123 E-score
17,GTCTCTTA,-0.134 E-score
18,CCGGCAGC,-0.0391 E-score
19,AATACACT,0.0246 E-score
20,CTGAAAGA,-0.194 E-score
21,ATTTAAAA,-0.139 E-score
22,GACCTTAC,-0.199 E-score
23,AAGTCTCA,-0.0142 E-score
24,AATTGTTC,-0.119 E-score
25,TAGGGGCA,0.141 E-score

row,Sequence,binding signal
1,CACAGGCC,-0.194 E-score
2,ATCTGCTA,0.215 E-score
3,AAATCGCC,-0.222 E-score
4,GGATGTAC,-0.0609 E-score
5,CTTTGCCC,-0.254 E-score
6,ACTCGACG,0.0124 E-score
7,GAAGAAAA,-0.296 E-score
8,CGGCAATC,-0.049 E-score
9,CAAAGTTG,-0.121 E-score
10,GTTCGCTA,-0.101 E-score
11,CACGTGAC,-0.0444 E-score
12,AAGTGATT,-0.121 E-score
13,TCGCGTAA,-0.152 E-score
14,TGTTTAAA,-0.2 E-score
15,AGCATACT,-0.157 E-score
16,ATCAGCAG,0.124 E-score
17,GATCCTTA,0.342 E-score
18,AACAAACA,-0.0485 E-score
19,AGTCGGCA,-0.0962 E-score
20,GGGGAAAA,-0.179 E-score
21,AGAAGCAC,-0.219 E-score
22,ACAAATTG,-0.183 E-score
23,AACGGAGC,-0.255 E-score
24,CAGTGCGC,-0.211 E-score
25,CGTATTTA,0.169 E-score

row,Sequence,binding signal
1,ATTAACAA,-0.101 E-score
2,AATGCATC,0.036 E-score
3,AAAGAAGG,-0.0956 E-score
4,GAGCTTAC,-0.0554 E-score
5,ACCCCTAG,0.146 E-score
6,CGCGGCTA,-0.0643 E-score
7,CCAGTATC,0.407 E-score
8,AAGTGCGT,-0.2 E-score
9,ATTATTAG,0.0526 E-score
10,TAATTATA,0.0877 E-score
11,CAGAACCA,-0.147 E-score
12,CGATTGCG,-0.135 E-score
13,CACGATCA,0.172 E-score
14,GGCATAAC,-0.174 E-score
15,CCAACTTA,-0.0644 E-score
16,CTTCATTC,-0.144 E-score
17,AGGGATGG,0.0666 E-score
18,CAGCAAGC,-0.168 E-score
19,GGTGGCGA,-0.113 E-score
20,GGCACTTA,-0.195 E-score
21,GCCTGAAC,-0.27 E-score
22,CCCATCGA,0.127 E-score
23,GATTGCGC,-0.123 E-score
24,CAGAAGAA,-0.205 E-score
25,CATCTCAG,0.227 E-score

row,Sequence,binding signal
1,CGCATTAC,0.0348 E-score
2,AGCAAACG,-0.202 E-score
3,CCGTTAGC,-0.186 E-score
4,GACAATCC,0.18 E-score
5,GATGTAAA,-0.0741 E-score
6,GATGGCAC,0.0184 E-score
7,GAATGCTA,-0.0195 E-score
8,CCTAAAAA,-0.154 E-score
9,AGCCTTAA,-0.251 E-score
10,ACTTAAGC,-0.191 E-score
11,ACTCAGCA,-0.163 E-score
12,GTTAGTCA,-0.0628 E-score
13,ACATCCCG,0.143 E-score
14,ACATACCA,0.00472 E-score
15,GAGGAAAA,-0.0356 E-score
16,AATCAGAC,-0.00129 E-score
17,CCTATGCG,-0.0587 E-score
18,CACAGGAC,-0.208 E-score
19,CTCCCGGC,0.0257 E-score
20,ATAGATGG,0.0887 E-score
21,AGAGCCAA,-0.308 E-score
22,AGGGCCAG,-0.183 E-score
23,ACACTGCC,0.0567 E-score
24,ATAACATC,0.165 E-score
25,CCCGCGGA,0.205 E-score

row,Sequence,binding signal
1,ACACTAGA,0.0257 E-score
2,CAAGAGTG,-0.0889 E-score
3,GCAGTCGC,-0.218 E-score
4,GCCCGTAC,-0.144 E-score
5,AGACAACG,-0.103 E-score
6,ACAGGGGA,-0.0346 E-score
7,AGGCCTAT,-0.111 E-score
8,CAATTGAC,-0.17 E-score
9,ATATCGTG,0.376 E-score
10,CATGGGAA,0.0631 E-score
11,ACCCCCAC,-0.00921 E-score
12,ACGCCTCG,-0.153 E-score
13,ACTGGAGC,-0.0378 E-score
14,CGAGTACC,0.185 E-score
15,CCGTCGCA,-0.162 E-score
16,ATCCCTAG,0.284 E-score
17,TGGCAGAA,-0.112 E-score
18,ATGGCGGC,0.0545 E-score
19,CGGGGCCC,0.0382 E-score
20,AAATAGTG,-0.17 E-score
21,GAGTAGGC,-0.0274 E-score
22,ACTGATGG,-0.158 E-score
23,ATTTGGGC,-0.313 E-score
24,CCAGTCTC,-0.11 E-score
25,GGGTCTCA,0.266 E-score

row,Sequence,binding signal
1,ACGTTGGC,-0.223 E-score
2,CACGAAAC,-0.011 E-score
3,CAATACCG,0.354 E-score
4,CAGGATGG,-0.00159 E-score
5,AATCAAGA,-0.108 E-score
6,CGTACTCC,0.00017 E-score
7,GGTGGTCA,0.0295 E-score
8,CAAACAGC,-0.231 E-score
9,GCGGGGTA,0.329 E-score
10,CGTAGCCC,-0.0502 E-score
11,CGGCGTAA,-0.154 E-score
12,TGCCCCCA,-0.312 E-score
13,CCCTCGTC,-0.237 E-score
14,ATCATAGC,0.249 E-score
15,ATCCGTAA,0.22 E-score
16,CAAAAACA,-0.134 E-score
17,CGTGACAA,0.111 E-score
18,CAGTTACC,-0.151 E-score
19,TAACGGAA,-0.233 E-score
20,ATAACGGA,0.11 E-score
21,CAGGGTGA,0.0609 E-score
22,GCGCTCCA,-0.131 E-score
23,AGGCATCC,-0.0679 E-score
24,GGGGACTA,0.0793 E-score
25,ACTGAAGA,-0.111 E-score

row,Sequence,binding signal
1,CTGAAAAG,-0.125 E-score
2,AGGGAGCG,-0.119 E-score
3,AACAGCCC,-0.283 E-score
4,AGTCCTTC,-0.201 E-score
5,CTAGTTTC,0.141 E-score
6,CTCTGCCC,-0.145 E-score
7,AACACCCT,0.21 E-score
8,CCCTTGCC,-0.0944 E-score
9,ACCCTGTA,0.169 E-score
10,AACCCGAC,0.0556 E-score
11,AGTGTCGA,0.0558 E-score
12,ACTATAGC,-0.0814 E-score
13,ACAAAATG,-0.232 E-score
14,ATCAGTGG,0.261 E-score
15,ACGGGCCG,-0.0799 E-score
16,ATGTGGAC,-0.0701 E-score
17,CATACACA,0.145 E-score
18,AAAGATGG,-0.111 E-score
19,AAGGGAAT,-0.142 E-score
